Test results taken from PubChem BioAssay AID1768 (National Center for Advancing Translational Sciences (NCATS), 2009).
Out of some 270,000 compounds screened, about 620 (0.23%) were called active. This list was built around the results that the source calls inconclusive (neither active nor inactive); the mix of calls is not that of the screen. Calls follow the shape of the dose curve; as a rule, active = well fitted inhibition curve with a large enough effect in the polarisation, with a control signal flat (not every such curve was filed as active); inconclusive = small, poorly fitted or top-dose-only effect, or effect the other way, or a change in a side signal; inactive = no such curve, though single readings can be large or run the other way; the % refers to the polarisation. Potencies beside an inconclusive call are fits to weak or partial responses and may not hold up. A note “side channel” means that the fit belongs to a control or component signal, not to the main read-out.

Each compound was assayed against Menin (Homo sapiens) (UniProt O00255) (assay: qHTS Assay for Inhibitors Targeting the Menin-MLL Interaction in MLL Related Leukemias: Competition With Texas Red Labeled MLL-derived Mutant Peptide). Details: fluorescence polarization; FP activity change, negative = inhibition: at 61.6 µM (top of the series).
For FP activity change, negative = inhibition in this document: % of control where 0% means no effect.
Potency is read from the fitted curve at half-maximal effect; tags tell the direction and shape of the fitted curve or compound fluorescence and quenching.

Sequence of UniProt O00255 (O00255 whole entry, looked up): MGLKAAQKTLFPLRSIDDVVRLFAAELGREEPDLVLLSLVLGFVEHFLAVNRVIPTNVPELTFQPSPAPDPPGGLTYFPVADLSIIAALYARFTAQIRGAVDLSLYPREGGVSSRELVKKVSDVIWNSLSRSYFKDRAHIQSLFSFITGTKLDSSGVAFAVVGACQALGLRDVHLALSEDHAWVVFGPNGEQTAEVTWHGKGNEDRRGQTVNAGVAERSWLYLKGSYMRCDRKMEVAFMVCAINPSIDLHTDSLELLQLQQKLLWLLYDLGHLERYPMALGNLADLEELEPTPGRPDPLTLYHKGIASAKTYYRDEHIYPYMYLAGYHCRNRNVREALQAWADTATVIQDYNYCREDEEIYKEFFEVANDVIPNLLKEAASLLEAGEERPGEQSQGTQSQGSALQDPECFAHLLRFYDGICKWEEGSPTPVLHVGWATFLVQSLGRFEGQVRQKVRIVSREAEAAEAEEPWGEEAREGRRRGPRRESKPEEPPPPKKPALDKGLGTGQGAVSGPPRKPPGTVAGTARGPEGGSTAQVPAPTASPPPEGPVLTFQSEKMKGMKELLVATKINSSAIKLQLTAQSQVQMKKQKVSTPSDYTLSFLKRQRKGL

Potency, inconclusive:
O=C1c2ccccc2C(=O)C1Cc1cccc2ccccc12 39.8 µM [quencher, side channel, single point], Cc1c(CCC(=O)NCCC(=O)O)c(=O)oc2c(C)c3oc4c(c3cc12)CCCC4 15.8 µM [inhibitor, single point], NC(=S)n1[nH]c(-c2ccc([N+](=O)[O-])cc2)c(N=Nc2ccc(Cl)cc2)c1=O 3.55 µM [quencher, side channel, full curve], Cc1cc(N)ccc1-n1c(C)ccc1C 11.2 µM [fluorescent, side channel, partial curve], COc1ccc(C2CC(c3ccccc3)Oc3cc4c(cc32)OCO4)cc1 (stereo unspecified) 31.6 µM [quencher, side channel, partial curve], CC(=O)c1oc2ccccc2c1NC(=O)COC(=O)c1ccc(-n2nc(C)cc2C)cc1 39.8 µM [quencher, side channel, single point], COc1ccc(-n2c(SCc3nnc(-c4ccccc4)o3)nnc2-c2ccccc2)cc1 5.62 µM [fluorescent, side channel, partial curve], CCO[C@@H]1OC(C(=O)N2CCN(Cc3ccccc3)CC2)=C[C@H](c2coc3ccccc3c2=O)[C@H]1CCCO 14.1 µM [inhibitor, partial curve], COc1cc(-c2nnc(SCC(=O)OC3CCCCC3)o2)cc(OC)c1OC 39.8 µM [inhibitor, single point], COCc1c(Br)c(C)nc(OCC(=O)N/N=C/c2ccco2)c1C#N 39.8 µM [inhibitor, single point], COc1ccc(-n2c(SCc3cccnc3)nc3c(c2=O)SCC3)cc1OC 12.6 µM [inhibitor, partial curve], Cc1cccc(-c2c3c(=O)n(C)c(=O)n(C)c3cn2C2CCCCC2)c1 3.55 µM [fluorescent, side channel, full curve, poor fit], CCN(CC)c1ccc(NC(=O)Nc2ccc(C(C)=O)cc2)cc1 25.1 µM [quencher, side channel, partial curve], N#C/C(=C/c1cccn1-c1cccc(C(=O)O)c1)c1ccc(F)cc1 39.8 µM [quencher, side channel, single point], Cc1cc(=O)oc2cc(Oc3ccc([N+](=O)[O-])cc3[N+](=O)[O-])ccc12 39.8 µM [quencher, side channel, single point], Cc1ccc(-c2nnc(-c3ccc(NC(=O)c4cccs4)cc3)o2)cc1 28.2 µM [inhibitor, single point], CC1=C(C(=O)OC2CCCCC2)C(c2cccs2)n2c(nc3ccccc32)N1 (stereo unspecified) 14.1 µM [fluorescent, side channel, partial curve], Cc1ccccc1C(=O)Nc1ccc2c(c1)C(=O)NC2=O 31.6 µM [inhibitor, partial curve], CCn1ncc([C@@H]2C[C@H]3CN(Cc4cccc(Cl)c4)C(=O)[C@]34CCCN24)c1C 44.7 µM [inhibitor, single point], Cc1ccc(N(CC(=O)NCc2ccc(F)cc2)C(=O)c2snc(C(N)=O)c2N)cc1C 28.2 µM [inhibitor, single point], O=C(Nc1ccc(N2CCN(C(=O)c3ccc(Cl)cc3)CC2)cc1)c1ccc(Br)o1 8.91 µM [inhibitor, single point], CCc1nc2sc3c(c2c(=O)o1)CCCC3 8.91 µM [inhibitor, partial curve], COC(=O)/C=c1/s/c(=C(\C#N)C(=O)NCc2ccco2)n(-c2ccc(C)cc2)c1=O 15.8 µM [quencher, side channel, partial curve], Cc1ccc(SCc2ccc(C(=O)N3CCCCC3)cc2)cc1 15.8 µM [fluorescent, side channel, partial curve], CC1CN(c2nc3ccccc3cc2-c2ccccc2)CC(C)O1 (stereo unspecified) 12.6 µM [fluorescent, side channel, partial curve], O=C(Nc1ccccc1NC(=O)c1ccc(F)cc1)c1ccc(F)cc1 3.98 µM [inhibitor, partial curve], CCOc1ccccc1Nc1ncccc1C(=O)O 20 µM [quencher, side channel, single point], COc1cc(SC#N)ccc1N=Cc1c(C)[nH]n(-c2ccc(C)cc2)c1=O 25.1 µM [quencher, side channel, partial curve], Cc1nc(NCc2ccccc2)c2nc(-c3ccccc3)n(CCCN3CCCCC3C)c2n1 (stereo unspecified) 3.16 µM [fluorescent, side channel, partial curve, poor fit], COc1ccc(Nc2cc(Nc3cc(OC)c(OC)c(OC)c3)ncn2)cc1 15.8 µM [quencher, side channel, partial curve], O=C1/C(=C\c2cccc(O)c2O)SC(=S)N1Cc1ccccc1 3.55 µM [quencher, side channel, partial curve]

FP activity change, negative = inhibition, inactive:
O=C(COC(=O)CCc1c[nH]c2ccccc12)NCc1ccccc1 8.41%, COc1ccc(/C=C/C(=O)NC(=S)NNC(=O)c2cccnc2)cc1 6.49%, COc1ccc(CN(C(=S)Nc2ccccc2)C2CC(=O)N(c3ccc(F)cc3)C2=O)cc1 (stereo unspecified) -3.29%, COC(=O)C1=C(C(=O)OC)[C@@H]2N(C)c3ccc(OC)cc3[C@@]23C[C@@H](C(=O)OC)N(S(=O)(=O)c2ccc4c(c2)OCCN4C)C3=N1 -2.5% [at 11.7 µM], O=S(=O)(c1cccs1)N1CCN(C/C=C/c2ccccc2)CC1 -0.0917%
